# Assay results from PubChem BioAssay (NCATS).
# Inconclusive means that the source gave no clear call. Such entries were picked first, then a sample of the others. For some assays here: Where the call is inconclusive, the potency comes from a doubtful curve fit. Active and inactive are the calls of the source. Unless noted, calls come from the whole dose curve; as a rule, active = well fitted curve in the direction sought with a large enough effect; inconclusive = small, poorly fitted or top-dose-only effect, or another doubt; inactive = no such curve, though single readings can be large; an effect the other way counts as inactive or inconclusive.
# Assays:
# [1] = Cell Viability - H-4-II-E (AID 543);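 note: potency is the fitted concentration of half-maximal effect; cells exposed to compound for 40 hours; nearly all actives have a fitted effect of over 35% in size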
# In short: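 CellTiter-Glo luminescence (intracellular ATP) measured after 40 h compound exposure at 37 °C in H-4-II-E rat hepatoma cells seeded at 1500/well. Values are AC50s fitted with the standard Hill equation.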
# [2] = Cell Viability - SH-SY5Y (AID 544); conditions: SH-SY5Y neuroblastoma cell viability; at 92.2 µM (top of the series);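 note: cells exposed to compound for 40 hours; nearly all actives have a fitted effect of over 55% in size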
# In short: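 Cytotoxicity measured via ATP-dependent luciferase luminescence (CellTiter-Glo) following 40 h, 37 °C exposure of 1500 SH-SY5Y cells per well. Concentration-response data were fitted with the standard Hill equation to give AC50.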
# [3] = Cellular Toxicity (caspase-3) Hek293 (AID 664); conditions: HEK293 caspase-3 activation, DMSO = 0%, 100 µM tamoxifen = 100%; at 92.2 µM (top of the series);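 note: cells exposed to compound for 16 h at 37 °C before readout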
# In short: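 Concentration-response qHTS: caspase 3/7 activation measured by luminescent aminoluciferin substrate cleavage after 16 h compound exposure of Hek 293 cells. AC50 from Hill equation, with DMSO as basal and 100 uM tamoxifen as 100%.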
# [4] = biological target: Bile acid receptor (Homo sapiens) (UniProt Q96RI1); assay: qHTS assay for small molecule antagonists of farnesoid X receptor signaling (AID 588526; calls by dose curve; note: % is set by controls: 0 for no effect and ±100 for the full control effect); conditions: HEK293T FXR-UAS-bla, beta-lactamase ratio, antagonist mode; activity change, negative = inhibition: at 76.7 µM (top of the series)
# In short: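 Concentration-response titrations were fitted to the Hill equation for half-maximal inhibition and maximal response, with data normalised to 50 uM chenodeoxycholic acid and DMSO control wells. Cells: FXR-UAS-bla HEK293T, dialyzed FBS.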
# [5] = biological target: Peroxisome proliferator-activated receptor delta (Homo sapiens) (UniProt Q03181); assay: qHTS assay for small molecule agonists of peroxisome proliferator-activated receptor delta signaling (AID 588534; calls by dose curve;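 note: 0% = DMSO basal wells and 100% = positive control agonist at 10 µM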); conditions: HEK293T PPARdelta-UAS-bla, beta-lactamase ratio, 18 h; activation: at 76.7 µM (top of the series) unless noted
# UniProt Q03181, sequence (Q03181 whole entry, looked up): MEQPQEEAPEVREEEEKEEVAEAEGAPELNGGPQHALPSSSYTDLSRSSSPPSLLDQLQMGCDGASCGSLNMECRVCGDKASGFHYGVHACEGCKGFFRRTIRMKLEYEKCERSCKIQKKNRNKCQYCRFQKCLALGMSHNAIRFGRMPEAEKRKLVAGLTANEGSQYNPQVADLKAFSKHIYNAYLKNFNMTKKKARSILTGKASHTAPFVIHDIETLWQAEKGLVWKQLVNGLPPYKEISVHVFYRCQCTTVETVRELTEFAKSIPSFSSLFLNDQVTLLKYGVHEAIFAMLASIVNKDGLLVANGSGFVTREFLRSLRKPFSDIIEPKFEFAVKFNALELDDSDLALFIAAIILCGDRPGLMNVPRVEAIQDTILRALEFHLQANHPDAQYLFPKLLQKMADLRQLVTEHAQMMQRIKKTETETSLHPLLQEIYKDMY
# In short: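 Agonist-mode beta-lactamase reporter readout (CCF4 dye, 2 h at RT) after 18 h at 37 °C exposure to a titration; Hill-equation fitting gave EC50 and maximal response.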
# [6] = biological target: Peroxisome proliferator-activated receptor gamma (Homo sapiens) (UniProt P37231); assay: qHTS assay for small molecule antagonists of peroxisome proliferator-activated receptor gamma signaling (AID 588537; active = well fitted inhibition curve with a large enough effect in the signal ratio, with a control signal flat, not every such curve was filed as active; inconclusive = small, poorly fitted or top-dose-only effect, or effect the other way, or a change in a side signal; the % refers to the signal ratio; note: potency is the fitted concentration of half-maximal effect;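 note: reporter cells co-stimulated with 50 nM rosiglitazone agonist during compound treatment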; for activity, negative = inhibition: % of control where 0% means no effect); conditions: HEK293 PPARg-UAS-bla, beta-lactamase ratio, antagonist mode; activity, negative = inhibition: at 76.8 µM (top of the series) unless noted
# In short: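 Compounds are tested as concentration series for inhibition of rosiglitazone-driven (50 nM) reporter expression in GeneBLAzer PPAR-gamma-UAS-bla HEK293 cells. After 16 h at 37 C, CCF4 substrate is added for 2 h at room temperature and blue/green fluorescence is measured.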
# [7] = qHTS assay to identify small molecules that stimulate interleukin-8 (IL-8) secretion (AID 651758; active = well fitted activation curve with a large enough effect in the signal ratio; inconclusive = small, poorly fitted or top-dose-only effect, or effect the other way, or a change in a side signal; the % refers to the signal ratio; note: 0% is about no effect); conditions: HTRF ratio (665/615); activation: at 92.2 µM (top of the series)
# In short: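 Quantitative HTS in THP-1 monocytic cells at 2000 cells per well, with 16 hrs compound incubation at 37 C. IL-8 in the medium was then quantified by HTRF immunoassay, read after 1-3 hrs at room temperature.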
# [8] = Cell Viability - HUV-EC-C (AID 542);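 note: cells exposed to compound for 40 hours; % is set by controls: 0 for no effect and ±100 for the full control effect; nearly all actives have a fitted effect of over 35% in size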
# In short: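 CellTiter-Glo luminescence measured ATP loss in HUV-EC-C cells (1000/well) after 40 hr compound exposure at 37 °C, in complete culture medium. Concentration-response data were Hill-fitted to give AC50.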
# [9] = MultiTox-Fluor Cytotoxicity Assay - LYMP1-002 - Dead Cells (AID 960); conditions: LYMP1-002 lymphoblastoid cells, dead-cell protease fluorescence; cytotoxicity (dead cells): at 46.1 µM (top of the series);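 note: 0% = DMSO and 100% = tetraoctylammonium bromide; nearly all actives have a fitted effect of over 60% in size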
# In short: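 Dead-cell fluorescence (Ex/Em 485/520) after 16 h compound exposure at 37 C of LYMP1-002 lymphoblastoid cells in complete medium; AC50 by Hill equation, with data scaled between DMSO and 15 uM tetraoctylammonium bromide.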
# [10] = Cell Viability - LYMP2-005 (AID 967);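 note: plate controls were DMSO only for no effect and 92 µM tetraoctylammonium bromide control for full effect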
# In short: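 CellTiter-Glo luminescence (cellular ATP) read-out; LYMP2-005 lymphoblastoid cells, 2500/well, 5 h pre-incubation, then 24 h compound exposure at 37 C in complete medium. Tetraoctylammonium bromide positive control; AC50 by standard Hill fit.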
# [11] = Cell Viability - LYMP2-008 (AID 980); note: % is set by controls: 0 for no effect and ±100 for the full control effect; nearly all actives have a fitted effect of over 60% in size
# In short: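 Cytotoxicity determined from ATP-dependent luciferase luminescence (CellTiter-Glo) following 24 h compound exposure of human lymphoblastoid LYMP2-008 cells at 37 C. Concentration-response data fitted to the Hill equation to give AC50.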
# [12] = biological target: Glucocorticoid receptor (Homo sapiens) (UniProt P04150); assay: qHTS assay for small molecule antagonists of glucocorticoid receptor signaling (AID 588533; active = well fitted inhibition curve with a large enough effect in the signal ratio, with a control signal flat, not every such curve was filed as active; inconclusive = small, poorly fitted or top-dose-only effect, or effect the other way, or a change in a side signal; the % refers to the signal ratio;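 note: cells stimulated with 2 nM dexamethasone as agonist; % is set by controls: 0 for no effect and ±100 for the full control effect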); conditions: HeLa MMTV-bla, GRE beta-lactamase ratio, antagonist mode, 18 h; activity change, negative = inhibition: at 76.8 µM (top of the series)
# [13] = biological target: Thyroid hormone receptor beta (Homo sapiens) (UniProt P10828); assay: qHTS assay for small molecule antagonists of thyroid hormone receptor beta signaling (AID 588547; active = well fitted inhibition curve with a large enough effect in the signal ratio, with a control signal flat, not every such curve was filed as active; inconclusive = small, poorly fitted or top-dose-only effect, or effect the other way, or a change in a side signal; the % refers to the signal ratio;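 note: cells stimulated with 0.4 nM T3 agonist during compound exposure; % is set by controls: 0 for no effect and ±100 for the full control effect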); conditions: TR-UAS-bla HEK293, beta-lactamase ratio, antagonist mode, 18 h
# UniProt P10828, sequence (P10828 whole entry, looked up): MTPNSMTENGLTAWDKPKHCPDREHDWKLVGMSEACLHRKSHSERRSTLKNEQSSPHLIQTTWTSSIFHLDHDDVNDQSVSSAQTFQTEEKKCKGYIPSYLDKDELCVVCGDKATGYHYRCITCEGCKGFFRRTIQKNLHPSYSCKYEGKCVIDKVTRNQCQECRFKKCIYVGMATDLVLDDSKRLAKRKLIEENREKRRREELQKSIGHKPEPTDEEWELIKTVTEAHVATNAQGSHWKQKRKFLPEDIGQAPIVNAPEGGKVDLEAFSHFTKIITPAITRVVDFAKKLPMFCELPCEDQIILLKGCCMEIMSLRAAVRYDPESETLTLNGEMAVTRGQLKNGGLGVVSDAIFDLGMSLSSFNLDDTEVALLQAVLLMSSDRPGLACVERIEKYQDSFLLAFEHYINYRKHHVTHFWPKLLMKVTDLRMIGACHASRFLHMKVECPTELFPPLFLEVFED
# In short: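 TR-UAS-bla GripTite HEK293 cells in 2% charcoal/dextran FBS medium were preincubated 4 h at 37 C, given compound (0.59 nM to 92 uM) plus 0.4 nM T3 (final) for 18 h, then CCF4 for 2 h at RT; Hill fit gave IC50.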
# [14] = qHTS assay for small molecule agonists of the antioxidant response element (ARE) signaling pathway (AID 651741; active = well fitted activation curve with a large enough effect in the signal ratio; inconclusive = small, poorly fitted or top-dose-only effect, or effect the other way, or a change in a side signal; the % refers to the signal ratio; note: potency is the fitted concentration of half-maximal effect; for activation: % of control where 0% means no effect); conditions: HepG2 ARE-bla reporter, beta-lactamase FRET ratio, 16 h; activation: at 96 µM (top of the series) unless noted
# In short: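 Reporter: beta-lactamase under ARE, stably in HepG2. Exposure: 16 h, 37 C, compounds delivered in DMSO by pin tool after 5 h cell preincubation. Readout: FRET substrate fluorescence after 2 h at RT.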
# [15] = qHTS assay for small molecule antagonists of the retinoid-related orphan receptor gamma (ROR-gamma) signaling pathway - cell viability counter screen (AID 720652; active = well fitted curve in the direction sought with a large enough effect in the repeat runs; inconclusive = weak or mixed curves; inactive = no such curve, though single readings can be large; an effect the other way counts as inactive or inconclusive;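 note: CHO reporter cells with doxycycline-induced ROR-gamma expression; compound exposure lasted 16 hr before ATP read; % is set by controls: 0 for no effect and ±100 for the full control effect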)
# In short: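 Cytotoxicity counter screen: intracellular ATP (CellTiter-Glo luminescence) measured in the doxycycline-induced CHO RORE-luciferase reporter line after 16 hr compound exposure at 37 C, 5% CO2.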
# [16] = Cell Viability - N2a (AID 540); conditions: N2a mouse neuroblastoma cell viability; at 92.2 µM (top of the series);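 note: plate controls were DMSO alone for no effect and tamoxifen control for full effect; nearly all actives have a fitted effect of over 45% in size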
# In short: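 CellTiter-Glo ATP luminescence, read 20 min after reagent at room temperature, reported viability following 40 h compound treatment at 37 °C. N2a mouse neuroblastoma cells seeded 1500/well; Hill equation gave AC50.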
# [17] = biological target: Peroxisome proliferator-activated receptor delta (Homo sapiens) (UniProt Q03181); assay: qHTS assay for small molecule antagonists of peroxisome proliferator-activated receptor delta signaling (AID 588535; active = well fitted inhibition curve with a large enough effect in the signal ratio, with a control signal flat, not every such curve was filed as active; inconclusive = small, poorly fitted or top-dose-only effect, or effect the other way, or a change in a side signal; inactive = no such curve, though single readings can be large or run the other way; the % refers to the signal ratio); conditions: HEK293T PPARd-UAS-bla, beta-lactamase FRET ratio, 18 h; activity change, negative = inhibition: at 76.7 µM (top of the series) unless noted
# In short: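 Inhibition of PPAR-delta response element-driven beta-lactamase expression is measured in HEK293T cells exposed to a compound titration series for 18 hrs at 37 C. Half-maximal inhibition comes from Hill equation fitting.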
# [18] = Cell Viability - LYMP2-015 (AID 971);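 note: 0% = DMSO only and full effect = 92 µM tetraoctylammonium bromide; nearly all actives have a fitted effect of over 55% in size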
# In short: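 Cytotoxicity readout: decrease in intracellular ATP (CellTiter-Glo luminescence) in 2500 LYMP2-015 lymphoblastoid cells/well after 24 h compound exposure at 37 C. Concentration-response data fitted with the standard Hill equation to give AC50.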
# [19] = Cell Viability - LYMP2-010 (AID 981);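 note: cells exposed to compound for 24 hours at 37 °C; % is set by controls: 0 for no effect and ±100 for the full control effect; nearly all actives have a fitted effect of over 55% in size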
# In short: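 CellTiter-Glo ATP luminescence measured cytotoxicity after 24 h compound exposure at 37 C. LYMP2-010 cells were seeded at 2500/well, with tetraoctylammonium bromide as control; concentration-response curves gave AC50 values by the Hill equation.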
# [20] = Cell Viability - LYMP1-002 - Assay at 40 hr (AID 994); conditions: LYMP1-002 lymphoblastoid cell viability; at 92.2 µM (top of the series);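 note: 0% = DMSO only and full inhibition = 92 µM tetraoctylammonium bromide; nearly all actives have a fitted effect of over 60% in size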
# In short: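 Cytotoxicity was read as loss of cellular ATP (CellTiter-Glo luminescence) after 40 hr compound exposure at 37 C of 2500 LYMP1-002 lymphoblastoid cells per well. Concentration-response data were fitted with the standard Hill equation to give AC50.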
# [21] = biological target: Peroxisome proliferator-activated receptor gamma (Homo sapiens) (UniProt P37231); assay: qHTS assay for small molecule agonists of peroxisome proliferator-activated receptor gamma signaling (AID 588536; active = well fitted curve in the direction sought with a large enough effect in the signal ratio, with a control signal flat, not every such curve was filed as active; inconclusive = small, poorly fitted or top-dose-only effect, or effect the other way, or a change in a side signal; inactive = no such curve, though single readings can be large or run the other way; the % refers to the signal ratio;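 note: 0% = DMSO basal wells and 100% = rosiglitazone at 2 µM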); conditions: HEK293 PPARg-UAS-bla, beta-lactamase ratio, 16 h; activation: at 76.7 µM (top of the series), percent of rosiglitazone response, DMSO as zero
# In short: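 This is an agonist-mode beta-lactamase reporter assay in HEK293 PPAR-gamma-UAS-bla cells with 1% charcoal/dextran FBS. Compound titrations ran 16 h at 37 C before CCF4 detection. EC50 and efficacy are Hill fits scaled to 2 uM rosiglitazone (100%) and DMSO basal.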
# [22] = biological target: Retinoic acid receptor RXR-alpha (Homo sapiens) (UniProt P19793); assay: qHTS assay for small molecule antagonists of retinoid X receptor alpha signaling (AID 588546; active = well fitted inhibition curve with a large enough effect in the signal ratio, with a control signal flat, not every such curve was filed as active; inconclusive = small, poorly fitted or top-dose-only effect, or effect the other way, or a change in a side signal; inactive = no such curve, though single readings can be large or run the other way; the % refers to the signal ratio); conditions: HEK293T RXRa-UAS-bla, beta-lactamase ratio, antagonist mode
# UniProt P19793, sequence (P19793 whole entry, looked up): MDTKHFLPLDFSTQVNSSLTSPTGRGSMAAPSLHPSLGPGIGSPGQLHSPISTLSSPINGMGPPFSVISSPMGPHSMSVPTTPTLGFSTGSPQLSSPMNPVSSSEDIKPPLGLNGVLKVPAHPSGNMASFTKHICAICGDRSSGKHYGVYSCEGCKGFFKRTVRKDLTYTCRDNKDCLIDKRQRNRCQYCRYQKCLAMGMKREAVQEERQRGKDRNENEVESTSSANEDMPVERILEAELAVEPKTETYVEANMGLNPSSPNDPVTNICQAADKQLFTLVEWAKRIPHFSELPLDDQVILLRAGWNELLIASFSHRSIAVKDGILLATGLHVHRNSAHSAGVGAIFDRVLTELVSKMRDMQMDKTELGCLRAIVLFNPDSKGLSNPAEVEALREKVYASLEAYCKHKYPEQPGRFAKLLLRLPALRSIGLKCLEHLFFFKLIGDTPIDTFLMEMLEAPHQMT
# In short: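 Beta-lactamase reporter inhibition, read as CCF4 fluorescence ratio (ex 405, em 460/530 nm) after 2 h at RT. HEK293T UAS-bla cells, 2500/well, were stimulated with 9-cis-RA at 500 or 100 nM final alongside test compound for 18 h at 37 C.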
# Tags give direction and shape of the fitted curve or compound fluorescence and quenching.
compound,measurement,setting,value
N#CCc1ccccc1[N+](=O)[O-],Potency,[1],"inconclusive: 50.1 µM [falling, partial curve]"
same,"viability change, negative = cytotoxic",[2],inconclusive: -32.5%
same,caspase-3 activation,[3],inconclusive: 56%
same,"activity change, negative = inhibition",[4],inconclusive: -22.5%
same,Potency,[5],inactive
same,"activity, negative = inhibition",[6],inconclusive: -1.52%
same,activation,[7],inconclusive: -20.6%
CC(C)CCOC(=O)/C=C/c1ccccc1,Potency,[8],inactive
same,Potency,[9],inactive
same,Potency,[10],inactive
same,Potency,[11],inactive
same,"activity change, negative = inhibition",[12],inconclusive: 5.39%
same,"activity, negative = inhibition",[6],inconclusive: 17%
same,activity change % (negative = inhibition),[13],inactive: -18.5%
same,Potency,[14],"inconclusive: 33.5 µM [activator, partial curve]"
same,activation,[7],inconclusive: 24.7%
same,Potency,[15],inactive
OCC(CBr)(CBr)CBr,"activity change, negative = cytotoxicity",[16],inconclusive: -79.9%
same,Potency,[17],inactive
same,Potency,[14],inactive
Oc1ccc2c(c1)OCO2,"activity change, negative = cytotoxicity",[16],inconclusive: -36.8%
same,Potency,[18],inactive
same,Potency,[19],inactive
same,"viability change, negative = cytotoxic",[20],inactive: -17.8%
same,activation,[21],inconclusive: -10.6%
same,Potency,[6],"inconclusive: 15.8 µM [inhibitor, full curve]"
same,max response,[22],inactive: 10.9%
same,activity change % (negative = inhibition),[13],inactive: 5.85%
same,Potency,[7],inactive
